Source: PubChem BioAssay AID463173 (ICCB-Longwood Screening Facility, Harvard Medical School, 2010)
The whole screen tested about 52,000 compounds, of which about 1,700 (3.3%) were called active. Rule as the data show it: active = survival mostly below about 52% (no sharp cut-off); inactive = mostly above about 56%. The list shows a part of the results.

What follows are molecules tested on Wild type (assay: growth inhibition of S. aureus wild type versus tarO mutant, primary screen, teichoic acid synthesis inhibitors, RN4220, OD600 (AID 463173)). Settings: S. aureus RN4220 wild type/DeltatarO growth, OD600, 18 h, hits give low values, screened at 18.75 µg/mL (by protocol).
For `CCCCc1nn2c(=O)cc(COC(=O)C(C)Oc3ccccc3)nc2s1` (stereo not drawn), the survival was inactive: 105%.
For `COc1ccc(CCC(=O)NCc2nc3cccnc3n2Cc2cccc(OC)c2)cc1`, the survival was inactive: 73%.
With `COc1ccc(Cl)cc1NC(=O)Cn1nc(C(F)(F)F)c2c1CCC2` the survival was inactive: 84%.
In the case of `COc1ccc(NS(=O)(=O)c2ccc3c(c2)CCCN3C(=O)C2CCC2)cc1OC`, the survival is reported as inactive: 119%.
In the case of `Cc1ccc(NC(=O)C2CCN(C(=O)c3cnn(-c4ccccc4)c3-n3cccc3)CC2)cc1`, the survival is reported as inactive: 129%.
With `CCOC(=O)N1CCc2c(sc3c2c(=O)n(-c2ccc(CC)cc2)c(=O)n3CC(=O)c2ccccc2)C1` the survival was inactive: 87%.
With `CC(C)CNC(=O)c1c(-c2ccccc2)c(-c2ccccc2)nn(C)c1=O` the survival was inactive: 85%.
With `COc1ccc2c(c1)CC(NC(=O)Nc1ccc(NC(C)=O)cc1)CO2` (stereo not drawn) the survival was inactive: 121%.
For `Cc1ccc(S(=O)(=O)NC2CCCCC2)c2nsnc12`, the survival was inactive: 129%.
In the case of `COc1ccccc1CNC(=O)C1CCN(Cc2cc3ccccc3n2Cc2cccc(C)c2)CC1`, the survival is reported as inactive: 54%.
`C[n+]1cccc(O)c1I` was tested, and the survival was inactive: 102%.
For `Cc1ccccc1Cn1c(=O)n(CCCCC(=O)NCc2ccccc2Cl)c(=O)c2ccccc21`, the survival was inactive: 96%.
`O=C(NCc1ccccc1Cl)c1ccc(NC(=O)c2nsc3ccccc23)cc1` was tested, and the survival was inactive: 66%.
`O=C(CSc1nnc(-c2ccncc2)n1-c1ccccc1)Nc1ccc(Br)cc1` was tested, and the survival was inactive: 73%.
In the case of `CCOc1ccc2nc(N3CCC(C(=O)Nc4ccc(Br)cc4F)CC3)sc2c1`, the survival is reported as inactive: 90%.
In the case of `CCOc1cc(C)c(C(C)C)cc1S(=O)(=O)n1ccnc1CC`, the survival is reported as active: -11%.
For `CCOc1ccc(NC(=O)C2CCN(S(=O)(=O)c3ccc4c(c3)oc(=O)n4C)CC2)cc1`, the survival was inactive: 92%.
For `O=C1S/C(=C/c2ccccc2)C(=O)N1CO`, the survival was inactive: 113%.
With `CC(=O)N1CCOc2cc(S(=O)(=O)Nc3cc(C(F)(F)F)ccc3Cl)c(C)cc21` the survival was inactive: 93%.
With `CCCNC(=O)c1c(NC(=O)c2ccc(C)cc2)sc2c1CCCCC2` the survival was inactive: 82%.
For `CCSc1ncc(Cl)c(C(=O)N(Cc2ccc(C(C)(C)C)cc2)C2CCS(=O)(=O)C2)n1` (stereo not drawn), the survival was inactive: 76%.
For `CCOC(=O)Nc1cccc(C(=O)O)c1`, the survival was inactive: 103%.
For `COc1ccc2c(c1)c1c(c(=O)n(Cc3ccccc3)c(=O)n1Cc1ccccc1)n2C`, the survival was active: -3%.
With `O=S(=O)(NC1CCCC1)c1ccc(-n2cnnn2)cc1` the survival was inactive: 101%.
In the case of `CCOC(=O)c1cccc(NC(=O)Nc2ccc3c(c2)N(C)C(=O)c2ccccc2S3)c1`, the survival is reported as inactive: 97%.
With `CCOC(=O)c1c(C)oc2nc(C)nc(NCCCN3CCN(c4cc(Cl)ccc4C)CC3)c12` the survival was inactive: 72%.
For `Cc1ccc(-c2noc(-c3nnn(CC(=O)Nc4cccc(C(F)(F)F)c4)c3N)n2)cc1`, the survival was inactive: 76%.
In the case of `O=C(NCCCN1CCN(c2ccccc2F)CC1)C1COc2ccccc2C1` (stereo not drawn), the survival is reported as inactive: 101%.
For `Clc1c(-c2nnc(-c3cccs3)o2)sc2ccccc12`, the survival was inactive: 103%.
For `CCCS(=O)(=O)N1CCN(C(=O)COc2cccc(C)c2)CC1`, the survival was inactive: 121%.
For `Cc1ccc(C(=O)NCC(=O)OCc2cc(=O)n3nc(C4CC4)sc3n2)cc1`, the survival was inactive: 86%.
In the case of `COc1ccc(S(=O)(=O)Cc2ccc(C(=O)N3CCN(c4cc(C)ccc4C)CC3)o2)cc1`, the survival is reported as inactive: 144%.
In the case of `CS(=O)(=O)N1C(=O)CCC1=O`, the survival is reported as inactive: 105%.
With `O=C(O)c1cccnc1SCc1cccc(Cl)c1` the survival was inactive: 71%.
`O=C(Nc1cccc(-c2nc3ccccc3[nH]2)c1)c1c(F)cccc1F` was tested, and the survival was inactive: 63%.
With `O=C(NN=C1CCCC1)c1cc(-c2ccccc2)n[nH]1` the survival was inactive: 121%.
With `CCOc1ccc(/C=C/C(=O)NCc2ccco2)cc1OC` the survival was inactive: 103%.
In the case of `Cc1ccccc1NC(=O)C(C)Sc1nc2ccccc2c(=O)n1C` (stereo not drawn), the survival is reported as inactive: 100%.
`CCc1ccc(C2c3c(-c4cc(C)ccc4O)n[nH]c3C(=O)N2CCO)cc1` (stereo not drawn) was tested, and the survival was inactive: 78%.
For `Cn1c(SCC(=O)N2CCOCC2)ncc(C(=O)Nc2ccc(F)cc2)c1=O`, the survival was inactive: 72%.
`CCOC(=O)c1c(S(=O)(=O)NCC(=O)Nc2cccc(SC)c2)c(C)n(C)c1C` was tested, and the survival was inactive: 70%.
`CNc1nc(SC)nc(N(C)C#N)n1` was tested, and the survival was inactive: 109%.
`CCCSc1nc2sc3c(c2c(=O)n1-c1ccc(C)cc1)CCCC3` was tested, and the survival was active: 5%.
With `CC(c1ccccc1)n1cc(C(=O)NCCN2CCCCCC2)nn1` (stereo not drawn) the survival was inactive: 119%.
`CC1=C(c2ccc(C(C)C)cc2)S(=O)(=O)NC1=NCc1ccc(OC(C)C)cc1` was tested, and the survival was inactive: 89%.
With `COc1ccc(NC(=O)CCCS(=O)(=O)c2nc(-c3ccccc3OC)cc(C(F)(F)F)n2)c(OC)c1` the survival was inactive: 76%.
For `CC1Cc2ccccc2N1C(=O)CSc1ncccc1C(=O)O` (stereo not drawn), the survival was inactive: 100%.
With `COc1ccc(C(C)NC(=O)CN(c2cc(OC)ccc2OC)S(=O)(=O)c2ccccc2)cc1` (stereo not drawn) the survival was inactive: 76%.
`CC1CCN(CCCNC(=O)CN2C(=O)CSc3ccc(S(=O)(=O)N4CCCCC4)cc32)CC1` was tested, and the survival was inactive: 78%.
`Cc1ccc(CNC(=O)C2CCCN(c3nc4ccccc4n4cccc34)C2)cc1` (stereo not drawn) was tested, and the survival was inactive: 86%.
For `COC(=O)c1ccc(NC(=O)Cn2cncn2)cc1`, the survival was inactive: 107%.
In the case of `O=C(c1cccs1)N1CCCc2cc(NS(=O)(=O)c3ccc(Br)cc3)ccc21`, the survival is reported as inactive: 68%.
`CCc1cccc(C)c1NC(=O)C1CCN(S(=O)(=O)c2cc(Br)cc3c2N(C(C)=O)CC3)CC1` was tested, and the survival was inactive: 86%.
In the case of `COCCn1c(CNC(=O)c2ccccc2C)nc2cccnc21`, the survival is reported as inactive: 69%.
In the case of `Cc1ccc(C)c(CN2CCC(CNC(=O)C(CC(C)C)N3Cc4ccccc4C3=O)CC2)c1` (stereo not drawn), the survival is reported as inactive: 133%.
For `COc1ccc(NC(=O)Nc2cccc(-c3noc(C)n3)c2)cc1`, the survival was inactive: 134%.
With `Brc1cccc(-c2nn(-c3ccccc3)c3c2cnc2cc4c(cc23)OCO4)c1` the survival was inactive: 86%.
`COc1ccc(-n2c(CC3C(=O)Nc4ccc(C)cc43)nc3ccccc3c2=O)cc1` (stereo not drawn) was tested, and the survival was inactive: 81%.
In the case of `O=C(NCc1ccccc1Cl)c1ccc2c(c1)ncn2-c1cccc(F)c1`, the survival is reported as inactive: 64%.
`COc1cccc(-n2ccnc2SCC(=O)Nc2cccc3ccccc23)c1` was tested, and the survival was inactive: 152%.
For `c1ccc(-n2cnnn2)cc1`, the survival was inactive: 114%.
With `O=c1c2c3c(sc2nnn1CCCCOc1ccc(Cl)cc1)CCCC3` the survival was inactive: 120%.
For `CCCSC1=NC2(CCN(C(=O)NC3CCCCC3)CC2)N=C1c1ccc(OC)cc1`, the survival was inactive: 71%.
In the case of `N#CC1=C2SCCN2C(=O)C(C#N)C12CCCCC2` (stereo not drawn), the survival is reported as inactive: 112%.
With `COc1cc(-c2noc(-c3cc4cccc(C)c4oc3=O)n2)cc(OC)c1OC` the survival was inactive: 101%.
With `COc1ccc(-c2nsc(NC(=O)c3oc4ccc(Cl)cc4c3C)n2)cc1` the survival was inactive: 85%.
`CCOc1ccccc1-n1c(N)c(C(=O)OC)c2nc3ccccc3nc21` was tested, and the survival was inactive: 81%.
In the case of `O=C(Nc1ccc(F)cc1)c1nc(SCc2ccccc2F)ncc1Cl`, the survival is reported as inactive: 118%.
`COc1ccc(-c2noc(C3CCCN(C(=O)Nc4ccccc4)C3)n2)cc1` (stereo not drawn) was tested, and the survival was inactive: 109%.
With `Cc1nc(-c2cccc(F)c2)sc1CCNC(=O)Cc1ccc(F)cc1` the survival was inactive: 136%.
In the case of `N#C/C(=C/c1ccc(O)cc1)c1nc(-c2ccc(-c3ccccc3)cc2)cs1`, the survival is reported as active: 0%.
In the case of `Cc1ccc(OCCn2c(CNc3ccccc3C)nc3ccccc32)cc1`, the survival is reported as inactive: 57%.
For `Cn1c(C(=O)NCc2ccccc2Cl)cc2sc(Cl)cc21`, the survival was inactive: 54%.
`Cc1cc(NC(=O)c2cnn(-c3ccccc3)c2-n2cccc2)ccc1Br` was tested, and the survival was inactive: 52%.
With `COc1ccc(-c2csc3ncnc(Nc4ccc(OC)cc4OC)c23)cc1` the survival was inactive: 75%.
`COc1cccc(-c2nc3c(C#N)c[nH]n3c2NC2CCCCC2)c1` was tested, and the survival was inactive: 87%.
For `CCc1cccc(NC(=O)Cn2c(=O)n(CC3CCC(C(=O)NC)CC3)c(=O)c3sccc32)c1` (stereo not drawn), the survival was inactive: 84%.
`COc1cccc(CNC(=O)CN(c2ccc(C)cc2)S(=O)(=O)N(C)C)c1OC` was tested, and the survival was inactive: 79%.
In the case of `Cc1cccc(N(C)C(=O)C2CCC(CNS(=O)(=O)c3cccc4nsnc34)CC2)c1` (stereo not drawn), the survival is reported as inactive: 84%.
For `COc1cccc(CNC(=O)Cn2c(=O)cc(C)c3c(C)nn(C)c32)c1OC`, the survival was inactive: 69%.
`N#CC1=C(N)N(c2ccc(Cl)cc2)C2=C(C(=O)CCC2)C1c1cc(CN2CCOCC2)cs1` (stereo not drawn) was tested, and the survival was inactive: 77%.
In the case of `COc1cc(NS(=O)(=O)c2cc(Br)cc3c2N(C(C)=O)C(C)C3)cc(OC)c1` (stereo not drawn), the survival is reported as active: -3%.
With `O=C(NC1CCCCC1)c1ccc2c(c1)N(Cc1ccc(F)cc1)C(=O)c1ccccc1S2(=O)=O` the survival was inactive: 141%.
For `CCOC(=O)CSc1nnc(-c2ccc(OC)cc2)o1`, the survival was inactive: 72%.
For `COc1cc(C(=O)Nc2cc(C)c(O)c(-c3nc4cc(Cl)ccc4o3)c2)cc(OC)c1OC`, the survival was inactive: 77%.
`CCN(CC)C(=O)c1sc2c(c1C)c(=O)n(-c1ccccc1)c(=O)n2CC(=O)N(CC)c1cccc(C)c1` was tested, and the survival was inactive: 68%.
In the case of `Cc1cn2c(=O)cc(COC(=O)COc3ccc(C)c(C)c3)nc2s1`, the survival is reported as inactive: 63%.
In the case of `O=C(c1ccccc1)N1CCC(c2nc3ccccc3[nH]2)CC1`, the survival is reported as inactive: 129%.
With `CCCOc1ccc(C(=O)N(Cc2ccc(Cl)cc2)Cc2ccco2)cc1` the survival was inactive: 77%.
In the case of `CN(C(=O)CSc1nncn2c1cc1occc12)c1ccccc1`, the survival is reported as inactive: 87%.
`COc1ccc(CCCN=C(N)N)cc1Cl` was tested, and the survival was inactive: 119%.
With `CCCCN(C)C(=O)CN1C(=O)c2cccnc2Oc2ccc(Cl)cc21` the survival was inactive: 68%.
With `Cc1ccc(CNC(=O)c2ccc3c(c2)NC(=O)C(CS(=O)(=O)Cc2cccc(C)c2)N3)cc1` (stereo not drawn) the survival was inactive: 131%.
